± gives the standard deviation of the averaged measurements. The list shows a part of the results.
The sequences below were run on PfAP2-G AP2 domain (GST-tagged) (assay: gcPBM binding intensity (ln(normalized median fluorescence intensity)); higher = stronger DNA binding).
Summary of the method: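 In this array assay, P. falciparum DNA-binding domains with a GST tag, expressed in E. coli, were applied for 1 h to primer-extended double-stranded 36-bp intergenic genomic probes and negative controls on an Agilent 4 × 180k array. Bound protein was visualised with Alexa488 anti-GST antibody at 488 nm. Binding intensity is the highest Masliner-normalised natural-log median intensity across replicate spots of either probe orientation.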

Sequence	gcPBM binding intensity (ln)
TTTAAATTTTAATATGCACACAAAATGTTATATTAA [CACACA_site8015]	9.95 ± 0.19
TATTATATCGAACACTGTACTTTTTTATTCAACCTA [XGTACX_site493]	11.6 ± 0.95
GCCTTTTTATTTAGAACACACACAAAAAAAAAAAAA [CACACA_site8520]	10.2 ± 0.54
AATAATAAATATATATATATATATATATATATATTT [CACACA_negctrl_site786]	9.56 ± 0.19
TAATAAACCAAACTAAACAATATATCAAAAAGCACA [CACACA_negctrl_site269]	10.03 ± 0.035
ATATATATATATATAGTGCAAATATCTTCTTTATAA	10.2 ± 0.72
CTTTCTTATTTGAACGCATGCATTTGTACCTTTTAT [TGCATGCA_site671]	10.8 ± 0.6
TATATACAAAATGCCTGTACATATATATTTATTTAT [XGTACX_site761]	10.9 ± 0.57
CATGCAAAAAATTCCACACACACACCCACATATAAA [CACACA_site1229]	10.5 ± 0.49
AATAATATCATTTAGACACACACTCTTACAATATGT [CACACA_site8832]	10.035 ± 0.007
AATTATTTATCGGAATGTACATAAAAACATATGTAT [XGTACX_site7443]	11.1 ± 0.58
ACCTACATAACATACACACGCATATATATAATTTTA [CACACA_site2847]	10.2 ± 0.16
TATTTAATAAAGAAATAAAAATAAAGAAAAAAAAAA [CACACA_negctrl_site74]	9.82 ± 0.13
TAAAATGTAATCTGAACACACATATTTTTTTAATAT [CACACA_site1768]	9.79 ± 0.12
TATAAATTTGTTGTTGCATGCAGTATACCAAAAAAA [TGCATGCA_site445]	10.3 ± 0.38
ATTTGTAATTTATATTCACACATTCAAAAAAATGAG [CACACA_site6057]	9.91 ± 0.13
AAAAATATAATATAATGTACACAAAAAAAAAAAAAT [XGTACX_site4914]	11.6 ± 0.91
AATAGCCCATATGGAATACACACTGAAAATAAAAAA [CACACA_site3373]	10.3 ± 0.26
CCATAAAAAGGATACACACACACACCGACATATATA [CACACA_site4653]	10.3 ± 0.22

Sequence	gcPBM binding intensity (ln)
TTCATTTAGCAAGAATGTACTTATATATATATATAT [XGTACX_site3401]	11.1 ± 0.92
CAAAAAAATGTGAAGGCATGCAAATATGTAAAATAA [TGCATGCA_site921]	10.06 ± 0.014
ATAAAGCCATACAATACACACATTTTACATGGGGGT [CACACA_site9072]	11.2 ± 0.74
GTATTATATTTCAACTGTACGTAAAACTATTAAAAT [XGTACX_site3679]	11.7 ± 1.1
CAACATAAAAATTAAGCATGCAATAGACTTGTGTTG [TGCATGCA_site417]	9.965 ± 0.035
TAATAAAATAATATCACACATATTTATATATATTAT [CACACA_site5814]	9.59 ± 0.028
GTTTAAAAAAATTATCAACTTTAAAAAGGTAACATT [XGTACX_negctrl_site203]	9.98 ± 0.34
ATATAAAAATTAAAATGTACATATCTTATTATAATA [XGTACX_site983]	11.1 ± 0.61
GTAGTAAATAGGAGGATGCATATGGCACACATTATA [TGCATGCA_negctrl_site59]	10.34 ± 0.092
AACTAATATAATAATACATGCACATAAAAATATATA [TGCATGCA_site606]	9.915 ± 0.007
AAAGGAATATAATGATGTACACAAATATATATACAT [XGTACX_site5347]	11.4 ± 0.61
TGAATAATATACATACGTACATACATATATATAATA [XGTACX_site1302]	11.3 ± 0.98
ATAAAAAGGAAACACACACACACACCCATATATATA [CACACA_site904]	10.1 ± 0.11
TTTTTTTTTTTTTTTTTTTTCATTCAATTATATTTA [CACACA_negctrl_site712]	9.4 ± 0.54
TTATCACATAAACGATGTACGTACTAGGTTTTTTTT [XGTACX_site2147]	11.5 ± 0.79
CACGCATACGGACACACACACACACCGATATATATA [CACACA_site4521]	11.3 ± 0.79
TATTTTTTTATTTGTGCATGTCATATTTAAACATAA [TGCATGCA_site1006]	10.05 ± 0.085
ATATTTTGTTTTATAGTGCACATGGGCATATATTAA [GTGCAC_site9435]	10.5 ± 0.35
ATATATATTATCATTGTGCACTTATTTATATACCTT	10.5 ± 0.28

Sequence	gcPBM binding intensity (ln)
GGCAACAATGTAGATTGTACATATGAATTTTACAAT [XGTACX_site5655]	10.8 ± 0.57
AAATTTCAATAATCTACACACATAAAAAAACAAAAG [CACACA_site1702]	10.11 ± 0.071
TTTACTTTTTTTTCTTGTACTCATACATACTATCAT [XGTACX_site4919]	11.4 ± 0.81
TTTAATAAATAAATAAATAAAATATATTAAAAACCA [CACACA_negctrl_site80]	9.695 ± 0.064
ATAATATGAAAACACACACACACACTAATAAAAAAA [CACACA_site8617]	10.1 ± 0.12
ATATTTTATTATTGTTGTACTTTTTTTTTTTGATTG [XGTACX_site4091]	11.5 ± 0.95
TAAGTATATAAAATTACACACTATTTTTTTTCAAGT [CACACA_site1792]	9.945 ± 0.064
TAGAAAAAAGATAGCACACACGGCCCAATATATATA [CACACA_site5354]	10.1 ± 0.16
TAATTCTTTATTTTTCGTACGTAAAACAAAAAATAT [XGTACX_site862]	11.1 ± 0.79
AATGTAAAGAACAAAACATGCAACTAGTTTACTTTT [TGCATGCA_site841]	9.94 ± 0.042
TCGAATATCTTATAGGTGCATCATAAATACATATGT	10.2 ± 0.28
GAATAAAAAAAAAAAAAAATTTATTTTATAATAAAA [CACACA_negctrl_site1514]	9.34 ± 0.042
ATATATATATATATATGTACATAAATATAAATTTAA [XGTACX_site8715]	11.3 ± 0.91
TTAATTTCGAATTATTGTACATTAATATATCTACAG [XGTACX_site3314]	10.8 ± 0.45
AAAACAAATAGACACGCACACAAAAAAAAAAAAAAA [CACACA_site801]	10.3 ± 0.43
AAAAAATATATTAAGGCACACACATACATATATATA [CACACA_site9239]	10 ± 0.18
CCTTTTGGATGAAAGTGTACAGGTGAGAAAAATTCC [XGTACX_site3358]	11.2 ± 0.79
ATGCAATAATAATGGAGTACATATTAATATTGATCA [XGTACX_site2312]	11.5 ± 1
CATTAGCATTTTATTACACACAATAAATTAGAAGTA [CACACA_site7837]	10 ± 0.13
